Residues, ends and D or L forms follow the SMILES beside them. *: point of attachment. Cbz = O=C(OCc1ccccc1)*
Columns and labels:
[1] = tested on: endoplasmic reticulum associated protein degradation (ERAD) pathway; assay: ERAD reporter assay, HEK293 cells expressing TCRα-GFP; assay type: cell-based; conditions: versus DMSO control
p97-Cys0 = assay: ATPase assay of the cysteine-less p97 variant; assay type: biochemical; conditions: relative to wt-p97
HEK293 cell line = assay: Cytotoxicity in the HEK293 cell line; conditions: read-out: EC50 value (cytotoxicity); HEK293 cells
recombinant E. coli FtsZ = recombinant E. coli FtsZ (Escherichia coli, UniProt P0A9A6); conditions: from crude extract in PBK
caspase 3 = assay: Western blot, apoptosis; assay type: cell-based; conditions: HEK293 cells, 24 h at 37 °C; 1 at 10-50 µM, 2 at 1-10 µM, 3 at 1-20 µM
p97 [2] = biological target: T1, p97 (Homo sapiens, UniProt P55072); assay: Functional chromatography on p97-resin; assay type: binding; conditions: from crude extract in PBK, without ATP
p97 [3] = biological target: T1, p97; assay: Malachite green ATPase assay of p97; conditions: for mode of inhibition relative to ATP: dose-response at 100 µM, 500 µM and 1 mM ATP; for IC50: read-out: IC50 value, inhibition of the ATPase activity of p97, 50 nM p97 hexamer, 100 µM ATP, malachite green
HA-CD3δ = assay: Western blot, HA-CD3δ in HEK293 cells; assay type: cell-based; conditions: 24 h at 37 °C, MG132 at 5 µM
TCRα-GFP = assay: Western blot, TCRα-GFP in HEK293 cells; assay type: cell-based; conditions: 24 h at 37 °C, MG132 at 5 µM

T1 sequence (P55072 whole entry): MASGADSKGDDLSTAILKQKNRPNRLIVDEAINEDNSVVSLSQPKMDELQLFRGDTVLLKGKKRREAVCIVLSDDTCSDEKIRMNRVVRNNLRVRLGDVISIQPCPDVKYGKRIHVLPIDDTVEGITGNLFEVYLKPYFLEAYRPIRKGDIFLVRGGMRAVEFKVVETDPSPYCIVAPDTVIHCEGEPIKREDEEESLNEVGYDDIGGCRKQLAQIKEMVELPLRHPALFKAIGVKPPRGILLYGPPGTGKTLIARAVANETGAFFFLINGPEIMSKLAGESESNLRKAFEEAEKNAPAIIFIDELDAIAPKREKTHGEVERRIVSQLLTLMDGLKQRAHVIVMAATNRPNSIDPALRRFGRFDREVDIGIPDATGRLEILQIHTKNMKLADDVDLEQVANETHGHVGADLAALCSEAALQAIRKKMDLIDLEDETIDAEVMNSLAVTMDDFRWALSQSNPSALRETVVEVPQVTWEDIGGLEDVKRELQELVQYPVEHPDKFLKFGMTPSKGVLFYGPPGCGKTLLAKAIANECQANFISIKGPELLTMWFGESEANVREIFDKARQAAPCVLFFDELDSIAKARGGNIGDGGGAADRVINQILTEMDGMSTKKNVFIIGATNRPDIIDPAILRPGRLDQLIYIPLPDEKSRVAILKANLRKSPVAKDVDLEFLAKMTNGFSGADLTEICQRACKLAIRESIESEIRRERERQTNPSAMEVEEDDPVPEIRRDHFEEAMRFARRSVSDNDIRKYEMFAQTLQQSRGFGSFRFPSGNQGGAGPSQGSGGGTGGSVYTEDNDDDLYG
Chain of UniProt P0A9A6 (P0A9A6 whole entry): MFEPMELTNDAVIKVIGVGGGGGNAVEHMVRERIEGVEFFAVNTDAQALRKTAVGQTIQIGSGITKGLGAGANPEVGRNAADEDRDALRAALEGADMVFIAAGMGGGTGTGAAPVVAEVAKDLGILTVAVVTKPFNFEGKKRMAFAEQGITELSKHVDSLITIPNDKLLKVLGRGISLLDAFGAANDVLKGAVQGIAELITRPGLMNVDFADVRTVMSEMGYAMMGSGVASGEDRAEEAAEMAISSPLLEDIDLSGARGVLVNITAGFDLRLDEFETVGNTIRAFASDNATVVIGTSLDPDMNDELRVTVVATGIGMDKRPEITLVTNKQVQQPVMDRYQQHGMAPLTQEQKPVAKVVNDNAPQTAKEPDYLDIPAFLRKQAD

Compound	TCRα-GFP degradation by fluorescence microscopy [1]	activity against p97-Cys0 (p97-Cys0)	EC50 (HEK293 cell line) [µM]	binding to FtsZ-resin (protein binding control) (recombinant E. coli FtsZ)	apoptosis (caspase 3 status) (caspase 3)	binding to p97-resin (p97 [2])	mode of inhibition relative to ATP (p97 [3])	IC50 (p97 [3]) [µM]	HA-CD3δ level (HA-CD3δ)	TCRα-GFP lower band (deglycosylated form of TCRα) level (TCRα-GFP)
O=C1c2cc(O)cc(O)c2C(=O)c2c(O)cc(O)cc21 [Compound 1, rheoemodin]	prevented p97-mediated TCRα-GFP degradation	no activity	113 ± 1.2	also obtained when using FtsZ-resin	did not observe apoptosis	enhanced in the p97-resin purified fraction	ATP competitive-like inhibition	–	–	–
COc1cc(OC)c2c(c1)C(=O)C1=C(C2=O)C(O)OC(C)=C1 (stereo not shown) [Compound 2, 1-hydroxydehydroherbarin]	–	effectively unchanged	2.1 ± 0.3	did not appear in the protein binding controls	potent, dose-dependent increase in caspase 3 levels	no detectable binding	non-competitive	21.7 ± 2.2	–	–
CC(C)C[C@@H](C=O)NC(=O)[C@H](CC(C)C)NC(=O)[C@H](CC(C)C)NC(=O)OCc1ccccc1 [MG132] (Cbz-Leu-Leu-Leu-aldehyde)	–	–	–	–	–	–	–	–	increased dramatically	dramatic increase
phomapyrrolidone A [Compound 3]	prevented p97-mediated TCRα-GFP degradation	effectively unchanged	–	–	quite modest apoptotic induction	bound to p97-resin in the absence of ATP	complex pattern but was not obviously competitive-like	6.6 ± 0.1	–	–

Reference: publication PMC4187115 (Chembiochem : a European journal of chemical biology, 2014)
